Laboratory results: the antibiotic and cytotoxicity screens of Wong et al. (2023)
Some of the results follow.

Assays:
HSkMC = human skeletal muscle cells; assay: cytotoxicity call (relative viability < 0.9); conditions: 10 µM
S. aureus RN4220 = assay: growth inhibition call (relative growth <= 0.2); conditions: 50 µM

SMILES | cytotoxicity call (HSkMC) | growth inhibition call (S. aureus RN4220)
COc1ccc(S(=O)(=O)Nc2ccc3c(c2)CC(=O)N([C@@H](C)CO)C[C@H](C)[C@@H](CN(C)Cc2ccc(Cl)c(Cl)c2)O3)cc1 | inactive | inactive
C[C@H](CO)N1C[C@H](C)[C@@H](CN(C)S(=O)(=O)c2ccc(F)cc2)Oc2ccc(NS(=O)(=O)c3ccccc3)cc2CC1=O | inactive | inactive
Cn1c(=O)n2n(c1=O)[C@H](C1CC1)C=C1CN3[C@@H]([C@H](Cc4ccccc4)OC(=O)[C@@H]3Cc3ccc(-n4cc(CCC(=O)NO)nn4)cc3)[C@@H]12 | inactive | inactive
COc1ccc(CN(C)C[C@@H]2OCCCC[C@H](C)Oc3ccc(NC(=O)Nc4ccc5c(c4)OCO5)cc3C(=O)N([C@@H](C)CO)C[C@H]2C)cc1 | inactive | inactive
C[C@@H]1CCCCO[C@H](CN(C)CC2CC2)[C@H](C)CN([C@@H](C)CO)C(=O)c2cc(NC(=O)Cc3ccccc3)ccc2O1 | inactive | inactive
CN1CCN(C(=O)C[C@H]2CC[C@H](NC(=O)Cc3ccccn3)[C@@H](CO)O2)CC1 | inactive | inactive
NS(=O)(=O)c1ccc(C(=O)O)cc1 | inactive | inactive
Cc1noc(C)c1S(=O)(=O)N(C)C[C@@H]1OCCCC[C@@H](C)Oc2ccc(NS(C)(=O)=O)cc2C(=O)N([C@H](C)CO)C[C@H]1C | inactive | inactive
COc1ccc(CN(C)C[C@@H]2Oc3ccc(NS(C)(=O)=O)cc3CC(=O)N([C@H](C)CO)C[C@@H]2C)cc1 | inactive | inactive
COc1ccc(S(=O)(=O)N(C)C[C@@H]2Oc3ccc(NC(=O)Cn4cnnn4)cc3C(=O)N([C@H](C)CO)C[C@H]2C)cc1 | inactive | inactive
COc1ccc(NC(=O)N(C)C[C@@H]2Oc3ncc(-c4cccc(C(F)(F)F)c4)cc3C(=O)N([C@H](C)CO)C[C@@H]2C)cc1 | inactive | inactive
CCOC(=O)C[n+]1ccccc1C | inactive | inactive
CC(C)NC(=O)Nc1ccc2c(c1)CC(=O)N([C@@H](C)CO)C[C@@H](C)[C@H](CN(C)S(=O)(=O)c1ccc(Cl)cc1)O2 | inactive | inactive
Cc1ccc(S(=O)(=O)N(C)C[C@@H]2OCCCC[C@H](C)Oc3ccc(NC(=O)C4CCCCC4)cc3C(=O)N([C@H](C)CO)C[C@@H]2C)cc1 | inactive | inactive
C[C@H](CO)N1C[C@H](C)[C@H](CN(C)Cc2ccc(Oc3ccccc3)cc2)Oc2ccc(NS(=O)(=O)c3ccccc3)cc2CC1=O | inactive | inactive
C[C@@H]1CN([C@@H](C)CO)S(=O)(=O)c2ccc(C#CCN(C)C)cc2O[C@H]1CN(C)Cc1ccc(F)cc1 | inactive | inactive
CN(C[C@@H](O)CN)S(=O)(=O)c1ccccc1 | inactive | inactive
COc1ccc([Si](C)(C)[C@@H]2[C@@H](CC(=O)N3CCC[C@H]3CO)O[C@]3(C(=O)N(Cc4ccc(N5C(=O)c6cccc7cccc5c67)cc4)c4ccccc43)[C@H]2C)cc1 | inactive | inactive
COc1ccc(NC(=O)Nc2ccc3c(c2)CC(=O)N([C@@H](C)CO)C[C@@H](C)[C@H](CN(C)S(=O)(=O)c2cn(C)cn2)O3)cc1 | inactive | inactive
CC(C)NC(=O)Nc1ccc2c(c1)CC(=O)N([C@H](C)CO)C[C@H](C)[C@H](CN(C)Cc1ccc(C(=O)O)cc1)O2 | inactive | inactive

SMILES | cytotoxicity call (HSkMC) | growth inhibition call (S. aureus RN4220)
Nc1ncnc2c([C@@H]3N[C@H](CO)[C@@H](O)[C@H]3O)c[nH]c12 | inactive | inactive
C[C@@H]1O[C@@H](OC[C@H]2O[C@@H](Oc3cc(O)c4c(c3)O[C@@H](c3ccc(O)cc3)CC4=O)[C@H](O)[C@@H](O)[C@@H]2O)[C@H](O)[C@H](O)[C@H]1O | inactive | inactive
O=C(C[C@H]1CC[C@@H]2[C@H](COC[C@@H](O)CN2S(=O)(=O)c2ccc(Oc3ccccc3)cc2)O1)NCCN1CCCCC1 | inactive | inactive
CC(=O)OC1CCC2(C)C(CCC3C2CCC2(C)C3CC3OC4(CCC(C)CO4)C(C)C32)C1 (stereo not given) | inactive | inactive
C[Si](C)(C)O[Si](C)(C)O[Si](C)(C)C | inactive | inactive
C[C@H]1CCCCO[C@@H](CN(C)S(=O)(=O)c2ccccc2)[C@@H](C)CN([C@@H](C)CO)C(=O)c2cc(NC(=O)C3CCCCC3)ccc2O1 | inactive | inactive
Cc1noc(C)c1S(=O)(=O)Nc1ccc2c(c1)C(=O)N([C@H](C)CO)C[C@H](C)[C@H](CN(C)CC1CC1)O2 | inactive | inactive
O=C(N[C@H]1C=C[C@@H](CC(=O)N2CCOCC2)O[C@@H]1CO)c1ccccn1 | inactive | inactive
O=C(C[C@H]1C=C[C@@H](NC(=O)c2cccnc2)[C@@H](CO)O1)NCCN1CCCCC1 | inactive | inactive
C[C@@H]1CN([C@H](C)CO)C(=O)CCCn2nncc2CO[C@@H]1CN(C)S(=O)(=O)c1ccc(Cl)cc1 | inactive | inactive
C[C@@H]1CN([C@@H](C)CO)C(=O)c2cc(NC(=O)CCN3CCOCC3)ccc2O[C@H]1CN(C)CC1CCCCC1 | inactive | inactive
CN(C)C(=O)C[C@@H]1CC[C@H]2[C@H](COc3ccc(NS(=O)(=O)c4cccc(F)c4)cc3C(=O)N2C)O1 | inactive | inactive
O=C1C(NS(=O)(=O)c2ccc(Br)cc2)=C(c2ccc(OC(F)(F)F)cc2)C(=O)c2ccccc21 | inactive | inactive
C[C@H](CO)N1C[C@H](C)[C@@H](CN(C)Cc2ccc(-c3ccccc3)cc2)Oc2ccc(NS(=O)(=O)c3cccs3)cc2C1=O | inactive | inactive
CC(=O)OCC(=O)NCCCOc1cccc(CN2CCCCC2)c1.Cl | inactive | inactive
COc1ccc([C@H]([C@H](Cc2ccccc2)OC(C)=O)N(C/C=C\[C@@H](O)c2ccccc2)[C@@H](Cc2ccccc2)C(OC)OC)cc1 | inactive | inactive
COc1ccc(S(=O)(=O)Nc2cccc3c2O[C@H](CN(C)S(=O)(=O)c2ccccc2)[C@@H](C)CN([C@@H](C)CO)C3=O)cc1 | inactive | inactive
C[C@@H]1CN([C@@H](C)CO)C(=O)c2ccccc2-c2ccccc2CO[C@@H]1CN(C)S(=O)(=O)c1cn(C)cn1 | inactive | inactive
C[C@@H]1CN([C@@H](C)CO)C(=O)c2cccc(NS(=O)(=O)c3ccccc3)c2O[C@@H]1CN(C)Cc1ccncc1 | inactive | inactive
C[C@H]1CN([C@@H](C)CO)C(=O)c2c(c3ccccc3n2C)-c2ccccc2CO[C@@H]1CN(C)Cc1cccc(C(=O)O)c1 | inactive | inactive

SMILES | cytotoxicity call (HSkMC) | growth inhibition call (S. aureus RN4220)
C[C@@H]1CN([C@H](C)CO)C(=O)c2cc(NS(=O)(=O)c3ccc(F)cc3)ccc2O[C@@H]1CN(C)C(=O)Nc1ccc(C(F)(F)F)cc1 | inactive | inactive
COc1cccc(-c2ccc3c(c2)O[C@@H](CN(C)C(=O)C2CC2)[C@H](C)CN([C@@H](C)CO)S3(=O)=O)c1 | inactive | inactive
CN(C)CCCCNC(=O)[C@@H]1C[C@@H]2C(=O)N[C@@H](CCCCN)C(=O)N2[C@@H]1c1ccc(O)cc1 | inactive | inactive
C[C@H](CO)N1C[C@H](C)[C@@H](CN(C)Cc2ccc(C(F)(F)F)cc2)Oc2ccc(NC(=O)CCC(F)(F)F)cc2CC1=O | inactive | inactive
COc1ccc(NC(=O)Nc2ccc3c(c2)[C@H]2C[C@H](CC(=O)NCC(F)(F)F)O[C@H](CO)[C@H]2O3)cc1 | inactive | inactive
Cc1noc(C)c1S(=O)(=O)N(C)C[C@@H]1Oc2ccc(NS(=O)(=O)c3cccs3)cc2CC(=O)N([C@H](C)CO)C[C@@H]1C | inactive | inactive
C[C@@H]1CN([C@@H](C)CO)C(=O)c2cccc(NS(C)(=O)=O)c2O[C@H]1CN(C)C(=O)Nc1ccccc1 | inactive | inactive
COc1ccc(CN(C)C[C@H]2OCCCC[C@@H](C)Oc3ccc(NS(=O)(=O)c4ccc(OC)cc4)cc3C(=O)N([C@@H](C)CO)C[C@H]2C)cc1 | inactive | inactive
CC(C)NC(=O)Nc1ccc2c(c1)C(=O)N([C@@H](C)CO)C[C@@H](C)[C@@H](CN(C)Cc1ccc(C(F)(F)F)cc1)OCCCC[C@H](C)O2 | inactive | inactive
C[C@H]1CN([C@@H](C)CO)C(=O)c2cc(NC(=O)Nc3ccc(C(F)(F)F)cc3)ccc2O[C@@H]1CN(C)S(C)(=O)=O | inactive | inactive
Cc1ccc(-c2ccc3c(c2)O[C@@H](CN(C)C(=O)CN(C)C)[C@@H](C)CN([C@H](C)CO)S3(=O)=O)cc1 | inactive | inactive
C[C@@H]1CN([C@H](C)CO)C(=O)Cc2cc(NC(=O)CCC(F)(F)F)ccc2O[C@H]1CN(C)S(=O)(=O)c1cccs1 | inactive | inactive
CCCC[C@@H](O)c1ccccc1 | inactive | inactive
COc1ccc(NC(=O)N(C)C[C@H]2Oc3ccc(NC(=O)C4CC4)cc3CC(=O)N([C@H](C)CO)C[C@@H]2C)cc1 | inactive | inactive
C=CCCCCCCCCC(=O)Nc1ccccc1C | inactive | inactive
COc1ccccc1CN1C(=O)c2ccccc2[C@@]2(Cc3ccccc3N(Cc3ccccc3)C2=O)[C@@H]1c1ccc(CO)cc1 | inactive | inactive
Cc1ccc(S(=O)(=O)Nc2ccc3c(c2)C(=O)N([C@@H](C)CO)C[C@H](C)[C@H](CN(C)Cc2ccc4c(c2)OCO4)OCCCC[C@H](C)O3)cc1 | inactive | inactive
O.O=C([O-])CC(O)(CC(=O)[O-])C(=O)[O-].[Li+].[Li+].[Li+] | inactive | inactive
O=C(/C=C/c1cccc(-c2cn(CC(=O)N3CCC4(CC3)C(=O)NCN4c3ccccc3)nn2)c1)NO | inactive | inactive
COc1ccc([Si](C)(C)[C@H]2[C@H](CCn3cc([C@H](O)c4ccccc4)nn3)O[C@@]3(C(=O)N(Cc4ccc(N5C(=O)c6cccc7cccc5c67)cc4)c4ccccc43)[C@@H]2C)cc1 | inactive | inactive
